# Data from the supplement of paper PMC8728848.
# Some of the results follow.
# Experiments:
# Test in all cases: glycan array binding signal (z-score within array); higher = stronger binding
# Settings in all cases: glycan notation: IUPAC condensed, linker removed
# [1] = target: Gal(b1-3)GlcNAc(b1-2)Man(a1-3)[Gal(b1-3)GlcNAc(b1-2)Man(a1-6)]Man(b1-4)GlcNAc(b1-4)GlcNAc
# Procedure, shortened: (§1)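 Columns mapping to the same glycan were averaged after glycan names were converted to IUPAC-condensed notation. The data come from 3228 arrays in the Consortium for Functional Glycomics database, limited to those with an available protein sequence. Binding is reported as a within-array Z-score averaged across arrays of one protein sequence and across linkers.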
# [2] = target: Gal(b1-3)GlcNAc(b1-2)Man(a1-3)[Gal(b1-3)GlcNAc(b1-2)Man(a1-6)]Man(b1-4)GlcNAc(b1-4)[Fuc(a1-6)]GlcNAc
# Procedure, shortened: as §1
# [3] = target: Gal(b1-3)GlcNAc(b1-2)Man(a1-3)[GlcNAc(b1-4)][Gal(b1-3)GlcNAc(b1-2)Man(a1-6)]Man(b1-4)GlcNAc(b1-4)GlcNAc
# Procedure, shortened: as §1
# [4] = target: Gal(b1-3)GlcNAc(b1-2)[Gal(b1-3)GlcNAc(b1-6)]Man(a1-6)[Gal(b1-3)GlcNAc(b1-2)Man(a1-3)]Man(b1-4)GlcNAc(b1-4)GlcNAc
# Procedure, shortened: as §1
# [5] = target: Gal(b1-3)GlcNAc(b1-3)Gal(b1-3)GlcNAc
# Procedure, shortened: as §1
# [6] = target: Gal(b1-3)GlcNAc(b1-3)Gal(b1-4)Glc
# Procedure, shortened: as §1
# [7] = target: Gal(b1-3)GlcNAc(b1-3)Gal(b1-4)GlcNAc
# Procedure, shortened: as §1
# [8] = target: Gal(b1-3)GlcNAc(b1-3)Gal(b1-4)GlcNAc(b1-2)Man(a1-3)[Gal(b1-3)GlcNAc(b1-3)Gal(b1-4)GlcNAc(b1-2)Man(a1-6)]Man(b1-4)GlcNAc(b1-4)GlcNAc
# Procedure, shortened: as §1
# [9] = target: Gal(b1-3)GlcNAc(b1-3)Gal(b1-4)GlcNAc(b1-2)[Gal(b1-3)GlcNAc(b1-3)Gal(b1-4)GlcNAc(b1-6)]Man(a1-6)[Gal(b1-3)GlcNAc(b1-3)Gal(b1-4)GlcNAc(b1-2)Man(a1-3)]Man(b1-4)GlcNAc(b1-4)[Fuc(a1-6)]GlcNAc
# Procedure, shortened: as §1
# [10] = target: Gal(b1-3)GlcNAc(b1-3)Gal(b1-4)GlcNAc(b1-3)Gal(b1-4)GlcNAc(b1-2)[Gal(b1-3)GlcNAc(b1-3)Gal(b1-4)GlcNAc(b1-3)Gal(b1-4)GlcNAc(b1-6)]Man(a1-6)[Gal(b1-3)GlcNAc(b1-3)Gal(b1-4)GlcNAc(b1-3)Gal(b1-4)GlcNAc(b1-2)Man(a1-3)]Man(b1-4)GlcNAc(b1-4)[Fuc(a1-6)]GlcNAc
# Procedure, shortened: as §1
# [11] = target: Gal(b1-3)GlcNAc(b1-3)Gal(b1-4)GlcNAc(b1-6)[Gal(b1-3)GlcNAc(b1-3)]Gal(b1-4)Glc
# Procedure, shortened: as §1
# [12] = target: Gal(b1-3)GlcNAc(b1-3)Gal(b1-4)[Fuc(a1-3)]GlcNAc
# Procedure, shortened: as §1
# [13] = target: Gal(b1-3)GlcNAc(b1-3)Gal(b1-4)[Fuc(a1-3)]GlcNAc(b1-6)[Gal(b1-3)GlcNAc(b1-3)]Gal(b1-4)Glc
# Procedure, shortened: as §1
# [14] = target: Gal(b1-3)GlcNAc(b1-3)GalNAc
# Procedure, shortened: as §1
# [15] = target: Gal(b1-3)GlcNAc(b1-6)Gal(b1-4)GlcNAc
# Procedure, shortened: as §1
# [16] = target: Gal(b1-3)GlcNAc(b1-6)GalNAc
# Procedure, shortened: as §1
# [17] = target: Gal(b1-3)GlcNAc(b1-6)[Gal(b1-3)]GalNAc
# Procedure, shortened: as §1
# Gal(b1-3)GlcNAc6S = target: Gal(b1-3)GlcNAc6S
# Procedure, shortened: as §1
# [18] = target: Gal(b1-3)[Fuc(a1-4)]GlcNAc
# Procedure, shortened: as §1
# [19] = target: Gal(b1-3)[Fuc(a1-4)]GlcNAc(b1-2)Man
# Procedure, shortened: as §1
# [20] = target: Gal(b1-3)[Fuc(a1-4)]GlcNAc(b1-2)Man(a1-3)[Gal(b1-3)[Fuc(a1-4)]GlcNAc(b1-2)Man(a1-6)]Man(b1-4)GlcNAc(b1-4)[Fuc(a1-6)]GlcNAc
# Procedure, shortened: as §1
# [21] = target: Gal(b1-3)[Fuc(a1-4)]GlcNAc(b1-3)Gal(b1-3)[Fuc(a1-4)]GlcNAc
# Procedure, shortened: as §1
# [22] = target: Gal(b1-3)[Fuc(a1-4)]GlcNAc(b1-3)Gal(b1-4)GlcNAc
# Procedure, shortened: as §1
# [23] = target: Gal(b1-3)[Fuc(a1-4)]GlcNAc(b1-3)Gal(b1-4)[Fuc(a1-3)]GlcNAc
# Procedure, shortened: as §1
# [24] = target: Gal(b1-3)[Fuc(a1-4)]GlcNAc(b1-6)GalNAc
# Procedure, shortened: as §1
# [25] = target: Gal(b1-3)[GlcNAc(b1-6)]GalNAc
# Procedure, shortened: as §1
# [26] = target: Gal(b1-3)[GlcNAc(b1-6)]GlcNAc
# Procedure, shortened: as §1
# [27] = target: Gal(b1-3)[Neu5Ac(a2-6)]GalNAc
# Procedure, shortened: as §1
# [28] = target: Gal(b1-3)[Neu5Ac(a2-6)]GlcNAc
# Procedure, shortened: as §1
# [29] = target: Gal(b1-3)[Neu5Ac(a2-6)]GlcNAc(a1-4)Gal(b1-4)Glc
# Procedure, shortened: as §1
# [30] = target: Gal(b1-3)[Neu5Ac(a2-6)]GlcNAc(b1-4)Gal(b1-4)Glc
# Procedure, shortened: as §1
# [31] = target: Gal(b1-3)[Neu5Ac(b2-6)]GalNAc
# Procedure, shortened: as §1
# [32] = target: Gal(b1-3)[Neu5Ac(b2-6)]GlcNAc
# Procedure, shortened: as §1
# Gal(b1-4)Gal = target: Gal(b1-4)Gal
# Procedure, shortened: as §1
# [33] = target: Gal(b1-4)GalNAc(a1-3)[Fuc(a1-2)]Gal(b1-4)GlcNAc
# Procedure, shortened: as §1
# [34] = target: Gal(b1-4)GalNAc(b1-3)[Fuc(a1-2)]Gal(b1-4)GlcNAc
# Procedure, shortened: as §1
# Gal(b1-4)Glc = target: Gal(b1-4)Glc
# Procedure, shortened: as §1
binder,measurement,setting,value
Epa12 (Candida glabrata) (protein) MGSSHHHHHHSSGLVPRGSHMLEPDNSLQIFDSFLSNPSKYPLGCSPKITNPKKGLSMELYSYPYRKKGSHPCWDPAYLDPNFPRVGYKKNKLIARVDGVSGDINFNFHPKRQCTPIADYLPPNFNYNEPITTTNFTMLLYGYFKPKVTGLHTFDISADDLLFMNFGAGNAFDCCRRDSTADTFGNYVAWAIWGRRIVRNKLTVRLDKGIYYPLRLFFNNRDYYGQMRLTFKTEHGSERITDFSDYFFSVDDTSEGCPGLITYESECADVKSSTVLETDYITIQAEKE,glycan array binding signal (z-score),[1],0.231
same,glycan array binding signal (z-score),[2],-0.148
same,glycan array binding signal (z-score),[3],-0.174
same,glycan array binding signal (z-score),[4],-0.008
same,glycan array binding signal (z-score),[5],0.285
same,glycan array binding signal (z-score),[6],-0.257
same,glycan array binding signal (z-score),[7],-0.208
same,glycan array binding signal (z-score),[8],-0.34
same,glycan array binding signal (z-score),[9],-0.042
same,glycan array binding signal (z-score),[10],-0.066
same,glycan array binding signal (z-score),[11],0.45
same,glycan array binding signal (z-score),[12],-0.023
same,glycan array binding signal (z-score),[13],-0.03
same,glycan array binding signal (z-score),[14],1.4
same,glycan array binding signal (z-score),[15],2.3
same,glycan array binding signal (z-score),[16],-0.093
same,glycan array binding signal (z-score),[17],0.005
same,glycan array binding signal (z-score),Gal(b1-3)GlcNAc6S,0.978
same,glycan array binding signal (z-score),[18],-0.176
same,glycan array binding signal (z-score),[19],-0.081
same,glycan array binding signal (z-score),[20],-0.215
same,glycan array binding signal (z-score),[21],-0.441
same,glycan array binding signal (z-score),[22],-0.282
same,glycan array binding signal (z-score),[23],-0.311
same,glycan array binding signal (z-score),[24],-0.273
same,glycan array binding signal (z-score),[25],-0.224
same,glycan array binding signal (z-score),[26],2.11
same,glycan array binding signal (z-score),[27],-0.146
same,glycan array binding signal (z-score),[28],-0.242
same,glycan array binding signal (z-score),[29],-0.272
same,glycan array binding signal (z-score),[30],0.193
same,glycan array binding signal (z-score),[31],-0.204
same,glycan array binding signal (z-score),[32],-0.282
same,glycan array binding signal (z-score),Gal(b1-4)Gal,-0.019
same,glycan array binding signal (z-score),[33],0.125
same,glycan array binding signal (z-score),[34],0.421
same,glycan array binding signal (z-score),Gal(b1-4)Glc,0.198
